From paper PMC4336329 (PLoS ONE, 2015)
About 2,200 (0.71%) of roughly 310,000 compounds showed an effect of 50% or more. The effect is printed as a negative number. This is one part of the list.

These molecules were tested against human ether-à-go-go-related gene (hERG) potassium channel (human, UniProt Q12809) (assay: primary screen, population patch clamp on CHO cells stably expressing hERG).
Sequence of human ether-à-go-go-related gene (hERG) potassium channel (Q12809 whole entry, looked up): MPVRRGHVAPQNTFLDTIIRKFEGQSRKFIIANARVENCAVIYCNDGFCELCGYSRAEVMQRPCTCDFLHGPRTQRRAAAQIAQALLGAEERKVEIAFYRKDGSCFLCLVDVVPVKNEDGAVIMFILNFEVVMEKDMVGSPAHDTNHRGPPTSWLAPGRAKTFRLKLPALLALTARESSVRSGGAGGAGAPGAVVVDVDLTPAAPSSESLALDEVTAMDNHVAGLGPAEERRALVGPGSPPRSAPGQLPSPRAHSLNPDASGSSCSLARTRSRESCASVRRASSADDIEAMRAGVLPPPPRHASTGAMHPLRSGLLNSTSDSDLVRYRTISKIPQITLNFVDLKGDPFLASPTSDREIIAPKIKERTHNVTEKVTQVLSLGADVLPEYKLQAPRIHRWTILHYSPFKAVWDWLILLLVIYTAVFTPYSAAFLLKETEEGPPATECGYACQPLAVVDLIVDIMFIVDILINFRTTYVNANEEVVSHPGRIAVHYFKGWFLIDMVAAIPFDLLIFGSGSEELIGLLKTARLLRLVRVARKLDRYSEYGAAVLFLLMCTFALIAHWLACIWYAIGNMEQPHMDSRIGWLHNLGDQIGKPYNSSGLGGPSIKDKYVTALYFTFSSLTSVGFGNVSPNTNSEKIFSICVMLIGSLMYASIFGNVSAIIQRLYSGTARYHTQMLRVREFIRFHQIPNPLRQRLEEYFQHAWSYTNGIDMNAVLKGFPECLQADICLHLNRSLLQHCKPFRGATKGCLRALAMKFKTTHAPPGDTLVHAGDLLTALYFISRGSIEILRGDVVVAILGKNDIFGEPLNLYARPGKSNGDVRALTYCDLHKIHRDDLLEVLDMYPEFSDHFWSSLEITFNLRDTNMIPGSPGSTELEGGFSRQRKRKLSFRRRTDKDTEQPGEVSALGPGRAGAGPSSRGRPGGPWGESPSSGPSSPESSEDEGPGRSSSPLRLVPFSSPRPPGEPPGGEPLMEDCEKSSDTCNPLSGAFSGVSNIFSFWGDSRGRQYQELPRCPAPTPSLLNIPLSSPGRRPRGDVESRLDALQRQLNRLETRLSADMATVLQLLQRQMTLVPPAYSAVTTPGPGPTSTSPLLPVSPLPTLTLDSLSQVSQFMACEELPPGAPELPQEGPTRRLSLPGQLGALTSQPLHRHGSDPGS

Compound | hERG current change (%, negative = inhibition) at 1uM [%]
Nc1nc(SCC(=O)Nc2c(Br)cc([N+](=O)[O-])cc2Br)n[nH]1 | 11.6
CCCCC(=NCCO)C1=C(O)C(C(=O)OC)C(C)(C)CC1=O (stereo not drawn) | 3.94
COCCNC(=O)Cc1ccc(F)cc1 | 7.39
Cc1ccc(N/C=C2/Sc3ccccc3NC2=O)cc1 | 6.22
C/C(=N\Nc1ncnc2sc(C)c(C)c12)c1ccccn1 | 6.42
O=C(Nc1ccccc1C(=O)O)c1cc(S(=O)(=O)N2CCCCCC2)ccc1Cl | 18.8
CCN(CC(=O)Nc1ccc(NC(C)=O)cc1)C(=O)COc1ccc(C(=O)c2ccccc2)cc1 | 10.3
CCOc1cccc(-c2nn3c(-c4ccco4)nnc3s2)c1 | -26.2
CCNC(=O)c1ccccc1-c1nc(-c2ccccc2Cl)no1 | 3.21
O=C(Cn1c2ccc(F)cc2c2nc3n(c(=O)c21)CCS3)N1CCCC1 | 15.6
O=C(Nc1nc2c(s1)CN(Cc1ccccc1)CC2)c1c(F)cccc1F | 8.37
C[C@@H](O)[C@H]1C(=O)N2C(C(=O)O)=C(S[C@@H]3CN[C@H](C(=O)N(C)C)C3)[C@H](C)[C@H]12 | 14.8
O=C(COc1ccc(Br)cc1)N1CCN(c2ncccn2)CC1 | -29.1
O=C(OC(C(=O)NCC1CCCO1)c1ccccc1F)c1ccco1 (stereo not drawn) | 13.9
COc1ccccc1N1CCN(S(=O)(=O)c2cc3[nH]c(=O)c(=O)[nH]c3cc2C)CC1 | 14.1
CCCCn1c(N)c(N(CCOC)C(=O)c2c(CC)noc2C)c(=O)[nH]c1=O | 18.7
CCOC(=O)/C(C(=O)Nc1ccc(Br)cc1)=C1/NC(C)(C)Cc2ccccc21 | 1.22
CC1CCN(S(=O)(=O)c2ccc(C(=O)N3CCCCC3C(=O)O)cc2)CC1 (stereo not drawn) | 15.5
CCC(=O)N1CCc2cc(S(=O)(=O)N3CCN(c4cc(Cl)ccc4C)CC3)ccc21 | 7.86
CC(/C=C/c1ccccc1)=N\NC(N)=S | 13
COc1ccc(C(=O)Nc2ccc(N3CCOCC3)cc2)cc1OC | 8.18
CCCOC(=O)c1cc(-c2ccc(C=O)o2)ccc1Cl | 3.2

Compound | hERG current change (%, negative = inhibition) at 1uM [%]
CC1(C)CC(=O)C2=C(C1)Nc1ccccc1NC2 | 8.25
O=C1Nc2ccc(Br)cc2C1(O)c1ccccc1 (stereo not drawn) | 11.2
CCOC(=O)N1CCN(C(=O)c2ccc3c(c2)N=C(C)c2cc(Cl)ccc2S3)CC1 | 12.1
COc1cccc(/C(O)=C2/C(=O)C(=O)N(Cc3cccnc3)C2c2ccco2)c1 (stereo not drawn) | 19.7
Cc1cccnc1NC(=S)NC(=O)c1oc2ccccc2c1C | 10.9
Cc1cc(-c2cccs2)c(C#N)c(=S)[nH]1 | 13.8
O=C(CSc1nnc(Cc2ccccc2)n1-c1ccc(F)cc1)N1CCOCC1 | -2.26
O=C(CSc1nc2c(cnn2-c2ccc(F)cc2)c(=O)[nH]1)N1CCCCC1 | 8.79
N#CC(C#N)=C1C=CC=CN1/C(=C\c1ccco1)C(=O)c1ccc(Cl)cc1 | -1.03
CC(C)(C)[C@H]1C=C(C(=O)N2CCN(Cc3ccc4c(c3)OCO4)CC2)O[C@@H](OCCCCO)C1 | -5.67
C[C@@H](C(=O)Nc1ccc2ccccc2c1)[C@@H]1C[C@@]1(C)[C@@H](NC(=O)c1cccnc1)c1ccccc1 | 11.1
Cc1ccc(C(=O)NCC(=O)N(C)CC(=O)Nc2c(Cl)cccc2Cl)s1 | 13.6
CCOC(=O)COc1ccc(/C=C2/C(=O)NN(c3ccc(F)cc3)C2=O)cc1OC | 11.8
Cc1ccc(C(=O)Nc2ccccc2C(=O)N2CCCC(C)C2)cc1 (stereo not drawn) | 8.04
Cc1ccc(S(N)(=O)=O)cc1 | 14.4
[N-]=[N+]=N[C@@H](CCN1CC[C@H](NC(=O)OCc2ccccc2)CCC1=O)c1ccccc1 | 0.126
COCCNC(=O)C(c1ccccc1C)N(C(=O)Cn1nnc2ccccc21)c1cccnc1 (stereo not drawn) | 4.63
Br.CC(C)CC(N)C(=O)OCc1ccc([N+](=O)[O-])cc1 (stereo not drawn) | 13.7
CSc1nnc(C)c(=O)n1COC(=O)c1ccccc1 | 10.5
O=C(CCCc1nc2ccccc2s1)N1CCN(c2ccccc2)CC1 | -1.64
CCOC(=O)CC(NC(=O)Cn1nnc(-c2ccccc2F)n1)c1ccccc1Cl (stereo not drawn) | 13.9
CCOc1ccc(N(CC(=O)N/N=C/c2cc(Br)c(C)o2)S(C)(=O)=O)cc1 | 6.96

Compound | hERG current change (%, negative = inhibition) at 1uM [%]
Cc1cccc(Nc2cc(=O)n(C)c(=O)[nH]2)c1 | 15.4
CCC(=O)N1CCc2cc(S(=O)(=O)CCC(=O)NC3CCCCC3)ccc21 | 15.6
O=C(NC1CCCCC1)C(c1ccc2ncccc2c1)N(Cc1ccc(F)cc1)C(=O)c1cccs1 (stereo not drawn) | 7.84
O=C(COC(=O)c1ccc2ccccc2n1)Nc1cccc(S(=O)(=O)NC2=NCCCCC2)c1 | -2.47
Cn1c(SCC(=O)NC2CC2)nnc1-c1ccccn1 | 4.72
COc1ccc(/C=C2\SC(=O)N(CC(=O)NCCCn3ccnc3)C2=O)cc1 | -1.63
CC(=O)NCCNC(=O)C1CCC(CNc2nc(=S)[nH]c3ccccc23)CC1 (stereo not drawn) | 8.05
O=[N+]([O-])c1ccc(N2CCN(c3ccc([N+](=O)[O-])cc3CO)CC2)c(CO)c1 | 0.461
O=C(CS(=O)(=O)Cc1ccccc1)Nc1ccccn1 | -12.7
CC(c1ccco1)N(C(=O)COc1ccc(Cl)cc1)c1ccccn1 (stereo not drawn) | 3.47
O=C(/C=C/c1c(Cl)cccc1Cl)NCCCn1ccnc1 | -0.936
COc1ccc(C(=O)N2CCN(c3ccccc3)CC2)cc1S(=O)(=O)N1CCOCC1 | 3.28
CCN1CCN(CC(=O)Nc2cc(F)ccc2C)CC1 | -7.45
O=c1oc2ccccc2c(N2CCCCC2)c1CN1CCCC1 | -22.6
O=C(c1cc(Cl)nc2ccccc12)N1CCN(S(=O)(=O)c2cccc(F)c2)CC1 | 7.35
Cc1cc(C(=O)NC(C)Cc2ccccc2)cc(C)c1[N+](=O)[O-] (stereo not drawn) | 7.74
O=c1oc(CCCO)cc2ccc(C#CC3(O)CCCCC3)cc12 | 10.5
CCOC(=O)c1[nH]c(C)c(C(=O)NCc2ccc(OC)cc2)c1C | 9.64
C/C(=N\O)C(=O)NCCN(C)C | 13.6
O=C(NCc1csc2ccc(Cl)cc12)Nc1ccccc1 | 10.5
Cc1ccccc1OCC(O)Cn1c(SC(C)C)nc2c1c(=O)[nH]c(=O)n2C (stereo not drawn) | -14.1
COc1ccc(CNC(=O)Cn2nc([N+](=O)[O-])cc2C)cc1 | 14.4

Compound | hERG current change (%, negative = inhibition) at 1uM [%]
N#Cc1ccc(/C=C/C(=O)c2ccccc2)cc1 | 10.8
COc1ccc(NS(=O)(=O)c2cc(NC(=O)[C@@H](NC(=O)c3ccccc3)C(C)C)ccc2C)cc1 | 1.28
CCC(=O)N1c2ccc(S(=O)(=O)CCC(=O)N3CCC4(CC3)OCCO4)cc2CC1C (stereo not drawn) | 5.78
Cc1ccc(S(=O)(=O)N2CCC(C(=O)OC(C)C(=O)NCc3ccccc3)CC2)cc1C (stereo not drawn) | 7.82
CCOC(=O)c1sc2nc(SCC#N)n(CC3CCCO3)c(=O)c2c1C (stereo not drawn) | -1.57
COc1cc(C)c(C)cc1S(=O)(=O)n1c(C)nc2ccccc21 | 5.21
CCOC(=O)c1ccc(NC(=S)NCCc2ccccc2F)cc1 | 1.98
O=C(c1c(F)cccc1Cl)N1CCN(S(=O)(=O)c2ccc3c(c2)OCCCO3)CC1 | 11.2
O=C(CCSc1nnc(-c2ccncc2)o1)Nc1cccc2ccccc12 | -1.56
CC12CN3CC(C)(CN(C1)C3c1ccc3c(c1)OCO3)C2O (stereo not drawn) | 12.8
O=C(Nc1ccc(NC(=O)C2CC2)nc1)c1cccnc1 | 8.41
COCCn1c(SCc2ccc(F)cc2)nc2ccccc2c1=O | 10.8
O=C(Nc1ccc(-c2nc3ccccc3s2)c(OC(=O)c2ccccc2)c1)c1ccccc1 | 11.4
Cc1cc(C)cc(N(CC(=O)NC2CCCC2)C(=O)CCC(=O)Nc2cc(C)on2)c1 | 7.6
CCOc1ccc(NC(=O)c2ccc(NC(=O)c3cn4c5c(c(N6CCN(C)CC6)c(F)cc5c3=O)OCC4C)cc2)cc1 (stereo not drawn) | -1.51
COCCCNC(=S)N1CCN(c2ccccc2)CC1 | 18.3
CCOC(=O)CCc1c(C)c2ccc(OCc3nn[nH]n3)c(C)c2oc1=O | 11.7
O=C(NCc1n[nH]c(=S)n1-c1cccc(Cl)c1)c1ccc(S(=O)(=O)N2CCCC2)cc1 | 3.82
S=c1[nH]nc(C2CCCCC2)n1/N=C/c1ccncc1 | 8.26
Cc1cc(=O)n2c(n1)OC(CO)C2 (stereo not drawn) | 12.1
Cc1ccc(CNC(=O)c2ccccc2NC(=O)CN2CC(C)OC(C)C2)cc1 (stereo not drawn) | 4.37
